# Experimental data: the supplement of paper PMC8728848
# Some of the results follow.
# Legend:
# Assay in all cases: glycan array binding signal (z-score within array); higher = stronger binding
# Settings in all cases: glycan notation: IUPAC condensed, linker removed
# [1] = molecular target: Fuc(a1-2)Gal6S(b1-3)GlcNAc6S
# Procedure, shortened: (§1)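 The binding signal is a Z-score computed within each array and averaged over linkers. Arrays of the same protein sequence at different concentrations or buffers were also averaged together. Data originate from 3228 arrays in the Consortium for Functional Glycomics database, kept only where the protein sequence was available.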
# Fuc(a1-2)Gal6S(b1-4)Glc = molecular target: Fuc(a1-2)Gal6S(b1-4)Glc
# Procedure, shortened: as §1
# [2] = molecular target: Fuc(a1-2)Gal6S(b1-4)Glc6S
# Procedure, shortened: as §1
# Fuc(a1-2)[Gal(a1-3)]Gal = molecular target: Fuc(a1-2)[Gal(a1-3)]Gal
# Procedure, shortened: as §1
# [3] = molecular target: Fuc(a1-2)[Gal(a1-3)]Gal(b1-3)GalNAc
# Procedure, shortened: as §1
# [4] = molecular target: Fuc(a1-2)[Gal(a1-3)]Gal(b1-3)GalNAc(b1-3)Gal(a1-4)Gal(b1-4)Glc
# Procedure, shortened: as §1
# [5] = molecular target: Fuc(a1-2)[Gal(a1-3)]Gal(b1-3)GlcNAc
# Procedure, shortened: as §1
# [6] = molecular target: Fuc(a1-2)[Gal(a1-3)]Gal(b1-3)GlcNAc(b1-2)Man(a1-3)[Fuc(a1-2)[Gal(a1-3)]Gal(b1-3)GlcNAc(b1-2)Man(a1-6)]Man(b1-4)GlcNAc(b1-4)GlcNAc
# Procedure, shortened: as §1
# [7] = molecular target: Fuc(a1-2)[Gal(a1-3)]Gal(b1-3)GlcNAc(b1-2)Man(a1-3)[Fuc(a1-2)[Gal(a1-3)]Gal(b1-3)GlcNAc(b1-2)Man(a1-6)]Man(b1-4)GlcNAc(b1-4)[Fuc(a1-6)]GlcNAc
# Procedure, shortened: as §1
# [8] = molecular target: Fuc(a1-2)[Gal(a1-3)]Gal(b1-3)GlcNAc(b1-3)GalNAc
# Procedure, shortened: as §1
# [9] = molecular target: Fuc(a1-2)[Gal(a1-3)]Gal(b1-3)GlcNAc(b1-6)GalNAc
# Procedure, shortened: as §1
# [10] = molecular target: Fuc(a1-2)[Gal(a1-3)]Gal(b1-4)Glc
# Procedure, shortened: as §1
# [11] = molecular target: Fuc(a1-2)[Gal(a1-3)]Gal(b1-4)GlcNAc
# Procedure, shortened: as §1
# [12] = molecular target: Fuc(a1-2)[Gal(a1-3)]Gal(b1-4)GlcNAc(b1-2)Man
# Procedure, shortened: as §1
# [13] = molecular target: Fuc(a1-2)[Gal(a1-3)]Gal(b1-4)GlcNAc(b1-2)Man(a1-3)[Fuc(a1-2)[Gal(a1-3)]Gal(b1-4)GlcNAc(b1-2)Man(a1-6)]Man(b1-4)GlcNAc(b1-4)GlcNAc
# Procedure, shortened: as §1
# [14] = molecular target: Fuc(a1-2)[Gal(a1-3)]Gal(b1-4)GlcNAc(b1-2)Man(a1-3)[Fuc(a1-2)[Gal(a1-3)]Gal(b1-4)GlcNAc(b1-2)Man(a1-6)]Man(b1-4)GlcNAc(b1-4)[Fuc(a1-6)]GlcNAc
# Procedure, shortened: as §1
# [15] = molecular target: Fuc(a1-2)[Gal(a1-3)]Gal(b1-4)GlcNAc(b1-3)GalNAc
# Procedure, shortened: as §1
# [16] = molecular target: Fuc(a1-2)[Gal(a1-3)]Gal(b1-4)GlcNAc(b1-3)[Fuc(a1-2)[Gal(a1-3)]Gal(b1-4)GlcNAc(b1-6)]GalNAc
# Procedure, shortened: as §1
# [17] = molecular target: Fuc(a1-2)[Gal(a1-3)]Gal(b1-4)GlcNAc(b1-6)GalNAc
# Procedure, shortened: as §1
# [18] = molecular target: Fuc(a1-2)[Gal(a1-3)]Gal(b1-4)[Fuc(a1-3)]Glc
# Procedure, shortened: as §1
# [19] = molecular target: Fuc(a1-2)[Gal(a1-3)]Gal(b1-4)[Fuc(a1-3)]GlcNAc
# Procedure, shortened: as §1
# [20] = molecular target: Fuc(a1-2)[Gal(a1-3)]Gal(b1-4)[Fuc(a1-3)]GlcNAc(b1-3)GalNAc
# Procedure, shortened: as §1
# [21] = molecular target: Fuc(a1-2)[Gal(a1-4)]Gal(b1-4)GlcNAc
# Procedure, shortened: as §1
# [22] = molecular target: Fuc(a1-2)[GalNAc(a1-3)]Gal
# Procedure, shortened: as §1
# [23] = molecular target: Fuc(a1-2)[GalNAc(a1-3)]Gal(b1-3)GalNAc(a1-3)[Fuc(a1-2)]Gal(b1-4)GlcNAc
# Procedure, shortened: as §1
# [24] = molecular target: Fuc(a1-2)[GalNAc(a1-3)]Gal(b1-3)GalNAc(b1-3)Gal(a1-4)Gal(b1-4)Glc
# Procedure, shortened: as §1
# [25] = molecular target: Fuc(a1-2)[GalNAc(a1-3)]Gal(b1-3)GlcNAc
# Procedure, shortened: as §1
# [26] = molecular target: Fuc(a1-2)[GalNAc(a1-3)]Gal(b1-3)GlcNAc(b1-2)Man(a1-3)[Fuc(a1-2)[GalNAc(a1-3)]Gal(b1-3)GlcNAc(b1-2)Man(a1-6)]Man(b1-4)GlcNAc(b1-4)GlcNAc
# Procedure, shortened: as §1
# [27] = molecular target: Fuc(a1-2)[GalNAc(a1-3)]Gal(b1-3)GlcNAc(b1-2)Man(a1-3)[Fuc(a1-2)[GalNAc(a1-3)]Gal(b1-3)GlcNAc(b1-2)Man(a1-6)]Man(b1-4)GlcNAc(b1-4)[Fuc(a1-6)]GlcNAc
# Procedure, shortened: as §1
# [28] = molecular target: Fuc(a1-2)[GalNAc(a1-3)]Gal(b1-3)GlcNAc(b1-3)GalNAc
# Procedure, shortened: as §1
# [29] = molecular target: Fuc(a1-2)[GalNAc(a1-3)]Gal(b1-3)GlcNAc(b1-6)GalNAc
# Procedure, shortened: as §1
# [30] = molecular target: Fuc(a1-2)[GalNAc(a1-3)]Gal(b1-4)Glc
# Procedure, shortened: as §1
# [31] = molecular target: Fuc(a1-2)[GalNAc(a1-3)]Gal(b1-4)GlcNAc
# Procedure, shortened: as §1
# [32] = molecular target: Fuc(a1-2)[GalNAc(a1-3)]Gal(b1-4)GlcNAc(b1-2)Man
# Procedure, shortened: as §1
# [33] = molecular target: Fuc(a1-2)[GalNAc(a1-3)]Gal(b1-4)GlcNAc(b1-2)Man(a1-3)[Fuc(a1-2)[GalNAc(a1-3)]Gal(b1-4)GlcNAc(b1-2)Man(a1-6)]Man(b1-4)GlcNAc(b1-4)GlcNAc
# Procedure, shortened: as §1
# [34] = molecular target: Fuc(a1-2)[GalNAc(a1-3)]Gal(b1-4)GlcNAc(b1-2)Man(a1-3)[Fuc(a1-2)[GalNAc(a1-3)]Gal(b1-4)GlcNAc(b1-2)Man(a1-6)]Man(b1-4)GlcNAc(b1-4)[Fuc(a1-6)]GlcNAc
# Procedure, shortened: as §1
# [35] = molecular target: Fuc(a1-2)[GalNAc(a1-3)]Gal(b1-4)GlcNAc(b1-3)Gal(b1-4)GlcNAc
# Procedure, shortened: as §1
# [36] = molecular target: Fuc(a1-2)[GalNAc(a1-3)]Gal(b1-4)GlcNAc(b1-3)Gal(b1-4)GlcNAc(b1-3)Gal(b1-4)GlcNAc
# Procedure, shortened: as §1
# [37] = molecular target: Fuc(a1-2)[GalNAc(a1-3)]Gal(b1-4)GlcNAc(b1-3)GalNAc
# Procedure, shortened: as §1
# [38] = molecular target: Fuc(a1-2)[GalNAc(a1-3)]Gal(b1-4)GlcNAc(b1-3)[Fuc(a1-2)[GalNAc(a1-3)]Gal(b1-4)GlcNAc(b1-6)]GalNAc
# Procedure, shortened: as §1
# [39] = molecular target: Fuc(a1-2)[GalNAc(a1-3)]Gal(b1-4)GlcNAc(b1-6)GalNAc
# Procedure, shortened: as §1
# [40] = molecular target: Fuc(a1-2)[GalNAc(a1-3)]Gal(b1-4)[Fuc(a1-3)]GlcNAc
# Procedure, shortened: as §1
# [41] = molecular target: Fuc(a1-2)[GalNAc(a1-3)]Gal(b1-4)[Fuc(a1-3)]GlcNAc(b1-3)GalNAc
# Procedure, shortened: as §1
# [42] = molecular target: Fuc(a1-2)[GalNAc(a1-4)]Gal(b1-4)GlcNAc
# Procedure, shortened: as §1
# [43] = molecular target: Fuc(a1-2)[GalNAc(b1-3)]Gal
# Procedure, shortened: as §1
binder,measurement,setting,value
Epa22 (Candida glabrata) (protein) MGSSHHHHHHSSGLVPRGSHMKRALSSQNPFGYPIGCSPQSTNVIPGLTMELYSYPIVSGTPPNCYDASYVDPEYPRTGYLKRKMIGKSTGVTGSLNYKFSVEKACMVKYGNLPAGYNYNEPLTVSNFTMLLYGYFKPQTSGIHTFFVNADDLLYINFGAGNAFDCCKREDSKFKLGEYVAYDIWHVDSSKNKVSLNLEKDVYYPIRMFFNNIGKDSSLDLSFSVNGAVEHITDFSGYLYSVPDQPDACPAPIGYDTTCK,glycan array binding signal (z-score),[1],5.1
same,glycan array binding signal (z-score),Fuc(a1-2)Gal6S(b1-4)Glc,-0.247
same,glycan array binding signal (z-score),[2],0.413
same,glycan array binding signal (z-score),Fuc(a1-2)[Gal(a1-3)]Gal,1.56
same,glycan array binding signal (z-score),[3],0.068
same,glycan array binding signal (z-score),[4],-0.365
same,glycan array binding signal (z-score),[5],0.017
same,glycan array binding signal (z-score),[6],-0.321
same,glycan array binding signal (z-score),[7],-0.366
same,glycan array binding signal (z-score),[8],-0.245
same,glycan array binding signal (z-score),[9],0.015
same,glycan array binding signal (z-score),[10],0.499
same,glycan array binding signal (z-score),[11],0.705
same,glycan array binding signal (z-score),[12],-0.195
same,glycan array binding signal (z-score),[13],-0.356
same,glycan array binding signal (z-score),[14],-0.258
same,glycan array binding signal (z-score),[15],-0.097
same,glycan array binding signal (z-score),[16],-0.034
same,glycan array binding signal (z-score),[17],-0.268
same,glycan array binding signal (z-score),[18],-0.313
same,glycan array binding signal (z-score),[19],-0.339
same,glycan array binding signal (z-score),[20],-0.345
same,glycan array binding signal (z-score),[21],4.5
same,glycan array binding signal (z-score),[22],-0.415
same,glycan array binding signal (z-score),[23],-0.315
same,glycan array binding signal (z-score),[24],-0.327
same,glycan array binding signal (z-score),[25],-0.344
same,glycan array binding signal (z-score),[26],-0.402
same,glycan array binding signal (z-score),[27],-0.383
same,glycan array binding signal (z-score),[28],-0.386
same,glycan array binding signal (z-score),[29],-0.371
same,glycan array binding signal (z-score),[30],-0.357
same,glycan array binding signal (z-score),[31],-0.4
same,glycan array binding signal (z-score),[32],-0.359
same,glycan array binding signal (z-score),[33],-0.338
same,glycan array binding signal (z-score),[34],-0.382
same,glycan array binding signal (z-score),[35],-0.308
same,glycan array binding signal (z-score),[36],-0.366
same,glycan array binding signal (z-score),[37],-0.399
same,glycan array binding signal (z-score),[38],-0.342
same,glycan array binding signal (z-score),[39],-0.16
same,glycan array binding signal (z-score),[40],-0.306
same,glycan array binding signal (z-score),[41],-0.315
same,glycan array binding signal (z-score),[42],-0.293
same,glycan array binding signal (z-score),[43],-0.369
